In all, about 320,000 compounds went through this assay and about 7,600 (2.4%) were called active. Inconclusive means that the source gave no clear call. Such entries were picked first, then a sample of the others. Calls follow the shape of the dose curve; as a rule, active = well fitted activation curve with a large enough effect; inconclusive = small, poorly fitted or top-dose-only effect; inactive = no such curve, though single readings can be large or run the other way. Potencies of inconclusive entries are doubtful fits and often do not repeat.
assay: qHTS Assay for NPC1 Promoter Activators; conditions: Huh7 NPC1 promoter luciferase reporter, 24 h; series mostly up to 9.22 µM; activation: at the top concentration; also: nearly all actives have a fitted effect of over 60% in size;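 as to activation: reporter is driven by a mutant NPC1 promoter; % of control where 0% means no effect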
Outline: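 Luminescence read-out of NPC1 promoter-driven luciferase in stably transfected Huh7 cells; compounds delivered in DMSO and left 24 h at 37C, 5% CO2, qHTS titration format.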
Potency is read from the fitted curve at half-maximal effect; tags tell the direction and shape of the fitted curve.

Potency, inconclusive:
COc1cc(/C=C/c2noc(-c3ccccc3O)n2)ccc1OC(C)=O 5.62 µM [activator, single point]
Cc1ccccc1-c1nc(-c2ccc(NC(=O)c3ccc(Br)o3)cc2)no1 3.55 µM [activator, single point]
CSc1ccccc1NC(=O)c1cnc2sc(C)cn2c1=O 5.62 µM [activator, single point]
Cc1ccc(/C=N/NC(=O)c2ccc3nc[nH]c3c2)o1 1.26 µM [activator, single point]
CC(C)OC(=O)Cc1nc2sc(-c3ccccc3)cc2c(=O)[nH]1 3.55 µM [activator, partial curve]
OCc1cn(-c2ccccc2)nc1-c1ccco1 2.24 µM [activator, partial curve]
O=C(Nc1ccc(Br)c(Cl)c1)c1ccco1 5.62 µM [activator, single point]
O=c1nccc(N/N=C/c2ccccc2)[nH]1 3.16 µM [activator, single point]
O=C(Nc1ccc(Cl)cc1)/C(=C1\CCCN1)[N+](=O)[O-] 3.16 µM [activator, partial curve]
O=C(Nc1ccc(N2CCOCC2)cc1)c1cnccn1 0.398 µM [activator, partial curve]
Cc1ccc(N/N=C(\C#N)C(=N)N2CCOCC2)cc1 3.98 µM [activator, partial curve]
O=C1S/C(=C\c2cccs2)C(=O)N1c1ccc(O)cc1 3.98 µM [activator, single point]
Cc1cc(C(=O)N/N=C/c2cccs2)n[nH]1 3.55 µM [activator, single point]
CCCCn1c(=O)[nH]c2nc3cc(N)ccc3nc2c1=O 4.47 µM [activator, partial curve, poor fit]
Cc1nc(N)sc1-c1csc(Nc2ncccn2)n1 0.562 µM [activator, partial curve]
Cc1ccc(C(=O)Nc2ncccc2O)o1 3.16 µM [activator, single point]
O=C(Nc1cccnc1)c1ccc(-c2ccc(Cl)cc2)o1 5.62 µM [activator, single point]
Cc1ccc(/C=N/N2CCN(c3ccccn3)CC2)o1 5.62 µM [activator, single point]
Nc1ccc2oc3ccccc3c2c1 3.98 µM [activator, partial curve]
Cc1cc(C)n(CC(C)NC(=O)c2cc(COc3ccc(F)c(F)c3)on2)n1 (centres undefined) 3.16 µM [activator, partial curve]
O=[N+]([O-])c1nn(-c2ccc3c(c2)OCCO3)n(O)c1=NCCCO 3.16 µM [activator, single point]
Cc1ccc(/C=C/C(=O)NC2=NCCS2)cc1 0.447 µM [activator, partial curve, poor fit]
COc1ccc(C2/C(=C(\O)c3ccc4c(c3)CC(C)O4)C(=O)C(=O)N2Cc2cccnc2)c(OC)c1 (centres undefined) 3.16 µM [activator, partial curve]
Cc1c(C(=O)N2CCN(C)CC2)oc2ccc(Br)cc12 2.51 µM [activator, partial curve]
Cc1nn(CCCC(=O)NCc2ccc(F)cc2)c(C)c1[N+](=O)[O-] 1.26 µM [activator, single point]
O=C(CCSc1ccccn1)Nc1ccc(Br)cc1 3.16 µM [activator, partial curve]
COc1cccc(-c2nc3ccc([N+](=O)[O-])cc3o2)c1 3.98 µM [activator, single point]
COC(=O)c1ccc(N=NNc2ccc(C(=O)OC)cc2)cc1 0.199 µM [activator, full curve]
Cc1cc(C)nc(Nc2nc(=O)c3ccccc3s2)n1 6.31 µM [activator, partial curve]
C=CCn1c(C)cc(C2=NNC(=Nc3ccc(C)cc3)SC2)c1C 3.98 µM [activator, single point]
N#CCCN(CCC#N)C(=O)c1ccc(Cl)cc1 3.55 µM [activator, single point]
O=C(/C=C\Nc1ccccc1Br)c1ccc2c(c1)OCO2 0.447 µM [activator, partial curve, poor fit]
O=c1[nH]c2ccccc2nc1/C=C/c1ccc(O)cc1 2.82 µM [activator, single point]
S=C(NNC(=S)Nc1ccccc1)Nc1ccccc1 2.51 µM [activator, partial curve]
Cc1cccc(-c2noc(-c3ccccc3C(=O)NCc3ccco3)n2)c1 3.16 µM [activator, partial curve]
COC(=O)N/N=C/c1cc(N=Nc2ccccc2Cl)ccc1O 3.16 µM [activator, single point]
Brc1ccc(-c2csc(N3CCOCC3)n2)cc1 5.62 µM [activator, single point]
Cc1ccc2nc(-c3ccc(NC(=O)COCC(=O)O)cc3)sc2c1 2 µM [activator, partial curve]
CCOC(=O)c1cnc(-n2nc(C)cc2C)nc1N(C)C 2.82 µM [activator, partial curve]
CCCn1cnc2cc(NC(=O)c3cccs3)ccc21 3.55 µM [activator, single point]
COc1cc(OC)cc(-c2cc3ccc(OC)cc3cn2)c1 0.708 µM [activator, full curve]

Potency, inactive:
CCN1C(=NCc2ccco2)N[C@@H](c2cccc(F)c2)C(C(=O)OC)=C1C

Potency, active:
Cc1ccc(/C=N/NC(=O)c2c[nH]c3ccccc23)s1 1.58 µM
COc1ccc(/C=N/Nc2nnc(-c3ncc[nH]3)c3ccccc23)cc1 2.82 µM
c1ccc(-c2nc3ccccc3[nH]2)nc1 3.98 µM
CCOC(=O)c1c(C)[nH]c(C=Nc2ccc(OC)cc2)c1O 3.98 µM
Cc1cc(=O)oc2cc(NC(=O)c3ccnn3C)ccc12 2.82 µM
Cc1ccn2cc(-c3cc4ccccc4oc3=O)nc2c1 0.316 µM
O=C(Nc1ccsc1C(=O)O)c1ccc(Cl)cc1 2.82 µM
CS(=O)(=O)NCc1ccc(C(=O)NCCOc2ccccc2)cc1 3.98 µM
Cc1nc(-c2ccc(NC(=O)c3ccc(Br)o3)cc2)cs1 1.78 µM
Cc1cccc(N/N=C2/COC(C)(C)CC2=O)c1 3.16 µM
O=C(NCCc1ccccn1)c1cc2ccccc2o1 3.55 µM
O=C(Nc1ccc2ccccc2c1)c1cccc(F)c1 1.26 µM
O=C(c1cc(-c2ccc(Cl)cc2)on1)N1CCCCCC1 0.794 µM
Cc1ccc(C(=O)Cc2cc3ccccc3oc2=O)c(C)c1 1.41 µM
COCCn1c(C)cc(C2=NNC(=Nc3ccc(F)cc3)SC2)c1C 2.51 µM

activation, inactive:
CCOc1ccc(NC(=O)COC(=O)c2cc(=O)c3ccccc3o2)cc1 1.67%
O=C(NC1CCCCC1)C(c1ccc2ncccc2c1)N(Cc1cccs1)C(=O)c1cccs1 (centres undefined) -0.503%
COc1cc(/C(C#N)=C/c2ccccc2)c([N+](=O)[O-])cc1OC -2.63%
O=[N+]([O-])c1ccc(C(O)C23CN4CN(CN(C4)C2)C3)cc1 (centres undefined) -1.43%
O=C(COC(=O)c1cc([N+](=O)[O-])ccc1N1CCOCC1)Nc1cc(F)ccc1F -9.67%
CC1(c2ccccc2)NC(=O)N(CC(=O)Nc2nnc(C3CC3)s2)C1=O (centres undefined) -1.95%
O=C(c1nc2nc(-c3ccccc3)cc(C(F)(F)F)n2n1)N1CCCCC1 -1.09%
COc1ccc(C(=O)Nc2cccc(NC(=O)c3cccs3)c2)cc1 18%
Nc1ccccc1Nc1cccc(C(F)(F)F)c1 -17%
COC(CN(C)C(=O)C1CCC(CNS(=O)(=O)c2ccccc2)CC1)OC (centres undefined) -0.735%
O=C(CCc1ccccc1)NNC(=O)COc1ccc([N+](=O)[O-])cc1 1.55%
CCOC(=O)C1CCCN(S(=O)(=O)c2ccc3c(c2)N(C)C(=O)CC(=O)N3C)C1 (centres undefined) 0.535%
COc1ccc(/C=C2\NC(=S)N(CC3CCCO3)C2=O)c(OC)c1 (centres undefined) 2.87%
Cc1ccc(CNC(=O)c2cc3c(-c4ccc(Cl)cc4)nn(C)c3s2)o1 -17.8%
O=C(O)Cn1c(=O)n(Cc2ccccc2)c2ccccc21 4.26%
CCC(=O)Nc1nc2nc(C)cc(=O)n2[nH]1 5.14%
CCN(CC)CCCN(C(=O)c1ccco1)c1nc(-c2ccc(Cl)cc2)cs1 -2.08%
O=C(Nc1ccccc1)Nc1cccn(Cc2c(F)cccc2Cl)c1=O 26%
CCN(CC(=O)Nc1c(F)cccc1F)C(=O)c1ccc(-c2ccc(C(C)=O)cc2)o1 -3.93%
Cc1ccc(S(=O)(=O)N2CCCc3cc(NC(=O)c4c(F)cccc4F)ccc32)cc1 -3.74%
CC(=O)c1sc(NC(=O)c2c(F)cccc2F)nc1-c1ccccc1 3.23%
CN(C(=O)c1cccc(S(=O)(=O)N2CCOCC2)c1)c1c(N)n(Cc2ccccc2)c(=O)[nH]c1=O -2.34%
